The list shows a part of the results.
Each sequence was assayed against T1, MBP-FoxP1dN (Mus musculus, UniProt P58462 326-579) (assay: PD-seq (MBP pull-down with sequencing); 20 mM Tris-HCl pH 7.5, 100 mM NaCl, 1.5 mM MgCl2, 0.4 uM protein, 0.1 uM dsDNA library, 30 min, room temperature, amylose pull-down; high values mean tight binding). Settings: protein: recombinant; tags: His6-MBP; chain copies: 2; dsDNA, one strand shown.
T1 sequence: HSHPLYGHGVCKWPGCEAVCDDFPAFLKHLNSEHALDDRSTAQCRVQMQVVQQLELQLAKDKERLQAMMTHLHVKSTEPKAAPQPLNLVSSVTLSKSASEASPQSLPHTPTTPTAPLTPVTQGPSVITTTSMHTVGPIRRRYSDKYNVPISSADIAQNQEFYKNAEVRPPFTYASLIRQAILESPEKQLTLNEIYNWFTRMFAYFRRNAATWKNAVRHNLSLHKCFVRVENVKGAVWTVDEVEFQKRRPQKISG
Summary of the method: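 A degenerate double-stranded DNA library, filled in with Klenow, was added at 0.1 µM to 0.4 µM His6-MBP-tagged mouse FoxP3 or FoxP1 fragment lacking the N-terminus, expressed in E. coli. Incubation lasted 30 min at room temperature in Tris pH 7.5 buffer with NaCl and MgCl2, after which complexes were collected on amylose resin, washed three times, digested with proteinase K to free the DNA, barcoded by PCR and sequenced by Illumina. Binding is the pooled-replicate reads-per-million enrichment of pull-down over input.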

Row | Sequence | binding signal
1 | GATGATTGTTCTCCCAGCTGATGAATTATTACGATCGAGTAAACAAATTTTCCTAATCTTTCTGTTCAAGCGCCATCTAC | 1.07 RPM ratio (pull-down/input)
2 | GATGATTGTTCTCCCAGCTGATGAATTCGCTCGTTCGAGTAAACAAATTTTCCTAATCTTTCTGTTCAAGCGCCATCTAC | 0.867 RPM ratio (pull-down/input)
3 | GATGATTGTTCTCCCAGCTGATGAATTGCGGCTTTCGAGTAAACAAATTTTCCTAATCTTTCTGTTCAAGCGCCATCTAC | 1.03 RPM ratio (pull-down/input)
4 | GATGATTGTTCTCCCAGCTGATGAATTAATGGGATCGAGTAAACAAATTTTCCTAATCTTTCTGTTCAAGCGCCATCTAC | 0.907 RPM ratio (pull-down/input)
5 | GATGATTGTTCTCCCAGCTGATGAATTCCGCACGTCGAGTAAACAAATTTTCCTAATCTTTCTGTTCAAGCGCCATCTAC | 0.821 RPM ratio (pull-down/input)
6 | GATGATTGTTCTCCCAGCTGATGAATTCCAGTTGTCGAGTAAACAAATTTTCCTAATCTTTCTGTTCAAGCGCCATCTAC | 1.19 RPM ratio (pull-down/input)
7 | GATGATTGTTCTCCCAGCTGATGAATTTAGCAATTCGAGTAAACAAATTTTCCTAATCTTTCTGTTCAAGCGCCATCTAC | 1.07 RPM ratio (pull-down/input)
8 | GATGATTGTTCTCCCAGCTGATGAATTCCGCCTGTCGAGTAAACAAATTTTCCTAATCTTTCTGTTCAAGCGCCATCTAC | 0.75 RPM ratio (pull-down/input)
9 | GATGATTGTTCTCCCAGCTGATGAATTGGCAATGTCGAGTAAACAAATTTTCCTAATCTTTCTGTTCAAGCGCCATCTAC | 0.922 RPM ratio (pull-down/input)
10 | GATGATTGTTCTCCCAGCTGATGAATTCGGGCGCTCGAGTAAACAAATTTTCCTAATCTTTCTGTTCAAGCGCCATCTAC | 0.805 RPM ratio (pull-down/input)
11 | GATGATTGTTCTCCCAGCTGATGAATTCGCCATCTCGAGTAAACAAATTTTCCTAATCTTTCTGTTCAAGCGCCATCTAC | 0.852 RPM ratio (pull-down/input)
12 | GATGATTGTTCTCCCAGCTGATGAATTGCATCCATCGAGTAAACAAATTTTCCTAATCTTTCTGTTCAAGCGCCATCTAC | 1.64 RPM ratio (pull-down/input)
13 | GATGATTGTTCTCCCAGCTGATGAATTTTATGTCTCGAGTAAACAAATTTTCCTAATCTTTCTGTTCAAGCGCCATCTAC | 0.899 RPM ratio (pull-down/input)
14 | GATGATTGTTCTCCCAGCTGATGAATTATGCTGGTCGAGTAAACAAATTTTCCTAATCTTTCTGTTCAAGCGCCATCTAC | 1.01 RPM ratio (pull-down/input)
15 | GATGATTGTTCTCCCAGCTGATGAATTTAATGTGTCGAGTAAACAAATTTTCCTAATCTTTCTGTTCAAGCGCCATCTAC | 1.07 RPM ratio (pull-down/input)
16 | GATGATTGTTCTCCCAGCTGATGAATTTTTGTCTTCGAGTAAACAAATTTTCCTAATCTTTCTGTTCAAGCGCCATCTAC | 1.05 RPM ratio (pull-down/input)
17 | GATGATTGTTCTCCCAGCTGATGAATTTGGGTCTTCGAGTAAACAAATTTTCCTAATCTTTCTGTTCAAGCGCCATCTAC | 0.904 RPM ratio (pull-down/input)
18 | GATGATTGTTCTCCCAGCTGATGAATTCTTAGGCTCGAGTAAACAAATTTTCCTAATCTTTCTGTTCAAGCGCCATCTAC | 0.791 RPM ratio (pull-down/input)
19 | GATGATTGTTCTCCCAGCTGATGAATTGCAAATTTCGAGTAAACAAATTTTCCTAATCTTTCTGTTCAAGCGCCATCTAC | 1.39 RPM ratio (pull-down/input)
20 | GATGATTGTTCTCCCAGCTGATGAATTATCAACGTCGAGTAAACAAATTTTCCTAATCTTTCTGTTCAAGCGCCATCTAC | 1.04 RPM ratio (pull-down/input)

Row | Sequence | binding signal
21 | GATGATTGTTCTCCCAGCTGATGAATTCAACCCGTCGAGTAAACAAATTTTCCTAATCTTTCTGTTCAAGCGCCATCTAC | 0.968 RPM ratio (pull-down/input)
22 | GATGATTGTTCTCCCAGCTGATGAATTTTGCCTATCGAGTAAACAAATTTTCCTAATCTTTCTGTTCAAGCGCCATCTAC | 0.955 RPM ratio (pull-down/input)
23 | GATGATTGTTCTCCCAGCTGATGAATTTTCACCGTCGAGTAAACAAATTTTCCTAATCTTTCTGTTCAAGCGCCATCTAC | 0.917 RPM ratio (pull-down/input)
24 | GATGATTGTTCTCCCAGCTGATGAATTTGCTCAATCGAGTAAACAAATTTTCCTAATCTTTCTGTTCAAGCGCCATCTAC | 1.05 RPM ratio (pull-down/input)
25 | GATGATTGTTCTCCCAGCTGATGAATTTCAGAGATCGAGTAAACAAATTTTCCTAATCTTTCTGTTCAAGCGCCATCTAC | 0.805 RPM ratio (pull-down/input)
26 | GATGATTGTTCTCCCAGCTGATGAATTAACACCGTCGAGTAAACAAATTTTCCTAATCTTTCTGTTCAAGCGCCATCTAC | 1 RPM ratio (pull-down/input)
27 | GATGATTGTTCTCCCAGCTGATGAATTGGGAGGCTCGAGTAAACAAATTTTCCTAATCTTTCTGTTCAAGCGCCATCTAC | 0.814 RPM ratio (pull-down/input)
28 | GATGATTGTTCTCCCAGCTGATGAATTTGGCGTTTCGAGTAAACAAATTTTCCTAATCTTTCTGTTCAAGCGCCATCTAC | 0.926 RPM ratio (pull-down/input)
29 | GATGATTGTTCTCCCAGCTGATGAATTCTTTGCGTCGAGTAAACAAATTTTCCTAATCTTTCTGTTCAAGCGCCATCTAC | 0.999 RPM ratio (pull-down/input)
30 | GATGATTGTTCTCCCAGCTGATGAATTCAAAGTCTCGAGTAAACAAATTTTCCTAATCTTTCTGTTCAAGCGCCATCTAC | 0.801 RPM ratio (pull-down/input)
31 | GATGATTGTTCTCCCAGCTGATGAATTGGGACTCTCGAGTAAACAAATTTTCCTAATCTTTCTGTTCAAGCGCCATCTAC | 0.812 RPM ratio (pull-down/input)
32 | GATGATTGTTCTCCCAGCTGATGAATTAATCAGTTCGAGTAAACAAATTTTCCTAATCTTTCTGTTCAAGCGCCATCTAC | 1.06 RPM ratio (pull-down/input)
33 | GATGATTGTTCTCCCAGCTGATGAATTGGCGTAATCGAGTAAACAAATTTTCCTAATCTTTCTGTTCAAGCGCCATCTAC | 1.3 RPM ratio (pull-down/input)
34 | GATGATTGTTCTCCCAGCTGATGAATTGCCGATGTCGAGTAAACAAATTTTCCTAATCTTTCTGTTCAAGCGCCATCTAC | 0.984 RPM ratio (pull-down/input)
35 | GATGATTGTTCTCCCAGCTGATGAATTCCGGAAGTCGAGTAAACAAATTTTCCTAATCTTTCTGTTCAAGCGCCATCTAC | 0.798 RPM ratio (pull-down/input)
36 | GATGATTGTTCTCCCAGCTGATGAATTACAGCCCTCGAGTAAACAAATTTTCCTAATCTTTCTGTTCAAGCGCCATCTAC | 0.917 RPM ratio (pull-down/input)
37 | GATGATTGTTCTCCCAGCTGATGAATTGAACGCGTCGAGTAAACAAATTTTCCTAATCTTTCTGTTCAAGCGCCATCTAC | 0.946 RPM ratio (pull-down/input)
38 | GATGATTGTTCTCCCAGCTGATGAATTGAGTAATTCGAGTAAACAAATTTTCCTAATCTTTCTGTTCAAGCGCCATCTAC | 1.02 RPM ratio (pull-down/input)
39 | GATGATTGTTCTCCCAGCTGATGAATTATAGAGATCGAGTAAACAAATTTTCCTAATCTTTCTGTTCAAGCGCCATCTAC | 0.873 RPM ratio (pull-down/input)
40 | GATGATTGTTCTCCCAGCTGATGAATTCTCTCCTTCGAGTAAACAAATTTTCCTAATCTTTCTGTTCAAGCGCCATCTAC | 0.83 RPM ratio (pull-down/input)

— PMC12820563, “FoxP3 forms a head-to-head dimer in vivo and stabilizes its multimerization on adjacent microsatellites”
